Results from paper PMC4336329 (PLoS ONE, 2015).
Out of some 310,000 compounds screened, about 14,000 (4.5%) showed an effect of 50% or more. Effects have a minus sign here. This is one part of the list.

Biological target: human ether-à-go-go-related gene (hERG) potassium channel (human, UniProt Q12809)
Test: primary screen, population patch clamp on CHO cells stably expressing hERG
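Also: peak tail current of the secondary pulse compared with the same well before compound.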

Chain of human ether-à-go-go-related gene (hERG) potassium channel (Q12809 whole entry, looked up): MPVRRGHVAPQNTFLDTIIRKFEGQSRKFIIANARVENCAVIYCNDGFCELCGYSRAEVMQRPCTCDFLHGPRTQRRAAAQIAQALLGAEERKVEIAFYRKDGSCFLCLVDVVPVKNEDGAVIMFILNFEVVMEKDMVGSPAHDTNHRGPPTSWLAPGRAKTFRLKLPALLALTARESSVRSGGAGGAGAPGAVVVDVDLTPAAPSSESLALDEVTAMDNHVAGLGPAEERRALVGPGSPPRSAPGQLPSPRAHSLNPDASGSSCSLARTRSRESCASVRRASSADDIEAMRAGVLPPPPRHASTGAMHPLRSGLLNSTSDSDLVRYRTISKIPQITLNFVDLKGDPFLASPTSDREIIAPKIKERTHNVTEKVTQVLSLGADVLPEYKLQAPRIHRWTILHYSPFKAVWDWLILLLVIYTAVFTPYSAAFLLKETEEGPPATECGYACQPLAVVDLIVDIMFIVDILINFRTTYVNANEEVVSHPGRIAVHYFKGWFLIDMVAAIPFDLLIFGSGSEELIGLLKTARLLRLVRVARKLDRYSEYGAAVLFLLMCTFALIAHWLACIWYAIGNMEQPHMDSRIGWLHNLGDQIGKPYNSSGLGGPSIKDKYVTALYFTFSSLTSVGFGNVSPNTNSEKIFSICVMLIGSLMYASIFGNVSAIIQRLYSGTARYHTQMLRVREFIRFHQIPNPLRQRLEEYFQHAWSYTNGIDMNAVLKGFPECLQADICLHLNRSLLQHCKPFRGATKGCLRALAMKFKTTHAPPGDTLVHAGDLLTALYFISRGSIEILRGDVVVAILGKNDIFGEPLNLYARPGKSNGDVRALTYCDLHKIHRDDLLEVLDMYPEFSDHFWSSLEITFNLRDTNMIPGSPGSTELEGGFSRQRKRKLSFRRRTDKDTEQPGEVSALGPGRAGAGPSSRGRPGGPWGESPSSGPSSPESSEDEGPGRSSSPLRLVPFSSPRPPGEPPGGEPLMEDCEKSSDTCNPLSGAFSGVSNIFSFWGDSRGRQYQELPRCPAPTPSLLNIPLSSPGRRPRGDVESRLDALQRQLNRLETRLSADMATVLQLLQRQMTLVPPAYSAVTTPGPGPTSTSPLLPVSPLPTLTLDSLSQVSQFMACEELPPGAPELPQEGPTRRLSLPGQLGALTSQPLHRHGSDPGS

SMILES	hERG current change (%, negative = inhibition) at 10uM
Cc1ccc(NC(=O)NCCN2CCCCC2)cc1C	-15.8%
CCOc1ccccc1NC(=O)/C=C/c1ccccc1[N+](=O)[O-]	2.3%
CC(C)CCC1(CCc2ccncc2)C(=O)NC(=O)NC1=O	-12.6%
Cc1cccc(-n2c(O)c(/C=N/Nc3nc4c(c(=O)n(C)c(=O)n4C)n3C)c(=O)[nH]c2=S)c1	-1.58%
O=C(Nc1ccn(Cc2c(F)c(F)c(F)c(F)c2F)n1)c1cccc(Cn2cc([N+](=O)[O-])cn2)c1	4.74%
CCCN(CCC)CCNS(=O)(=O)c1ccc2c(c1)CCN2C(=O)C1CCC1	-20.6%
O=C(C1CSC2(c3ccc(F)cc3)CCC(=O)N12)N1CCCCCC1 (stereo not drawn)	-20.8%
COc1cccc(/C=C/C(=O)OCC(=O)Nc2cccc(S(=O)(=O)N(C)C)c2)c1	-3.82%
Cc1ccc(S(=O)(=O)N(C)C)cc1NC(=O)C1CCCCC1	-1.12%
CCOc1ccc(-c2nc(C#N)c(N3CCOCC3)o2)cc1	1.6%
CCn1c(COc2cccc3cccnc23)nnc1SCC(=O)OC	16.8%
CCNC(=S)NNC(=O)c1cccn(Cc2ccc(Cl)cc2)c1=O	-9.11%
O=C(OCC(=O)N1CCN(Cc2ccccc2)CC1)c1ccc(Cl)cc1	-42.8%
CC(=O)C1=C(O)C(=O)N(c2nccs2)C1c1ccc(Br)cc1 (stereo not drawn)	11.9%
O=C(Cn1c(=O)[nH]c2ccsc2c1=O)NC1CCCCCC1	-11.9%
Cc1oc2c(c1C(=O)O)C(=O)c1ccccc1C2=O	-5.98%
Cc1ccc(OCc2cc(C(=O)NCC3COCCO3)no2)cc1C (stereo not drawn)	-10%
Cl.O=C(NCC(c1cccs1)N1CCOCC1)c1ccccc1NS(=O)(=O)c1ccc(Cl)cc1 (stereo not drawn)	16.8%
Cn1c(SCc2nc3ccccc3c(=O)[nH]2)nc2ccccc21	0.933%

SMILES	hERG current change (%, negative = inhibition) at 10uM
Cc1ccc(N2C(=O)N(CC(=O)Nc3ccccc3C(F)(F)F)C(=O)C2C)cc1 (stereo not drawn)	-12.4%
CCCc1nnc(NC(=O)CCC(=O)NC2CC2)s1	8.48%
CC(=O)Nc1ccc(S(=O)(=O)N2CCN=C2SCc2ccccc2C)cc1	0.41%
CC(=O)c1cnc2cc(-c3cccc(Br)c3)nn2c1C	4.11%
COc1cc(S(=O)(=O)NCc2cccnc2)c(OC)cc1Br	33.9%
Cc1cc2n(n1)C(c1ccccc1)Nc1ccccc1-2 (stereo not drawn)	2.95%
O=C(c1cccc(Cl)c1)N1CCC(N2CCC(C(=O)N3CCOCC3)CC2)CC1	-18.6%
Cc1nn(Cc2c(Cl)cccc2Cl)c(C)c1NC(=O)Cn1nc([N+](=O)[O-])c(Cl)c1C	-0.751%
NNC(=O)CNC(c1ccccc1)c1cc(Br)ccc1N (stereo not drawn)	-17.6%
C=CCNC(=O)NC(=O)COC(=O)c1ccccc1Sc1ccc(C(F)(F)F)cc1[N+](=O)[O-]	17.6%
CC1(C)CC(=O)c2c(O)cc(OCC(=O)NCCc3ccc(S(N)(=O)=O)cc3)cc2O1	-29.9%
COc1cccc2cc(C(=O)NC(C)c3ccccc3)c(=O)oc12 (stereo not drawn)	16.3%
CCS(=O)(=O)c1ccc(-c2csc(-c3ccc(Cl)cc3)n2)c(Cl)c1Cl	13.8%
O=c1ccc(-c2ccccc2)nn1Cc1ccccc1	0.0976%
O=C(NC(=S)Nc1ccc(S(=O)(=O)Nc2nccs2)cc1)c1ccccc1	15.2%
Cc1nnc(SCC(=O)N2CCN(S(=O)(=O)c3ccc(Cl)cc3)CC2)[nH]c1=O	15%
CCOc1ccc(N2CC(C(=O)Nc3ccccc3N3CCOCC3)CC2=O)cc1 (stereo not drawn)	-14.4%
CC(=O)Nc1ccc(S(=O)(=O)NCCc2csc(C)n2)cc1	-12.6%
CC1(C)CC(=O)C=C(NCCN2CCN(C(=O)Nc3ccc(Cl)c(Cl)c3)CC2)C1	-24%

SMILES	hERG current change (%, negative = inhibition) at 10uM
CCOc1ccccc1-c1nc(CN2CCCC2c2nccs2)c(C)o1 (stereo not drawn)	-2.48%
C=CCSc1nc(N)c2c(C)c(C)sc2n1	-24.1%
Cc1ccc(CNC(=O)Cc2cn(C)c3ccccc23)cc1	16.5%
Cc1cc2ncc(C(=O)N=CN(C)C)cn2n1	-7.59%
CCOc1ccc(OCCSc2nc(-c3ccccc3)cc(=O)[nH]2)cc1	19.2%
Cc1ccc(S(=O)(=O)NC(=O)Nc2c(C)cccc2C)cc1	13.5%
CC12CN(S(=O)(=O)c3ccccc3)CC(C)(CN(S(=O)(=O)c3ccccc3)C1)C2	-11.5%
O=C(Nc1c2c(nc3ccccc13)CCCC2)c1cccc([N+](=O)[O-])c1	-5.85%
CCC(C)c1ccc(S(=O)(=O)N2CCN(c3ccccn3)CC2)cc1 (stereo not drawn)	24.6%
O=C(COC(=O)CNS(=O)(=O)c1ccc(F)c(F)c1F)NC1CCCC1	4.16%
COc1ccc(OCCOCCN2CCOCC2)cc1	5.25%
O=C(CN1CCNC(=O)C1)NCCc1ccc(Cl)cc1Cl	1.45%
COc1ccc(-c2ccc(SCC(=O)NCc3ccco3)nn2)cc1	-8.73%
CCC1CCCCN1C(=O)CSc1nc(N)cc(=O)[nH]1 (stereo not drawn)	11.7%
CC1(C)CC(=O)C=C(Nc2ccc(F)cc2F)C1	-3.73%
CC(=O)Nc1ccc(NC(=O)c2ccc(Cn3cc(Cl)cn3)cc2)cc1	-1.45%
Cc1cccc(OCCC(=O)NCC(c2ccccc2)N(C)C)c1 (stereo not drawn)	2.88%
CC(=O)c1sc(NC(=O)COc2ccc(Br)cc2)nc1C	2.18%
Cc1ccccc1NS(=O)(=O)c1cc(C(=O)NCCC2=CCCCC2)ccc1Cl	-14.3%
